Measurements as given in the supplement of paper PMC12632987.
In all, about 4,500 sequences were measured (“median log2 fold change of GCK-ALFA target abundance (FLAG IP / Myc IP barcode read proportion)”: median about 0.078, lowest 2% from about -0.6 on). The list shows a part of the results.

B1: GBRAP_52_6042 (protein)
chain: MEERMRELAEEILALYLEGREEEARKLIREAVETLSEEELKLLGEALAELAREAPPEHLDAYMQAAFDLADALEEAGYDEVLADDLEARVAAAAVENLKR
B2: GBRAP_128_3309 (protein)
chain: MDEEKLAEAARLAKEMVESDIETAKELTRRFVALMATLTPEERERAAEIFKEELKKLSAEKLDAIADTLDELLPTLDPETANYVNEIRVEALNEAEEKEE
B3: GBRAP_74_6526 (protein)
chain: DAALLAALKAAADAGDVEAAVALAREIIATGSLAAVEEAAEILVEFVKKNIDKLTKEELELLSDTLAELADRLMELGGDSEVVIAVAQTAVELDKKAAAL
B4: GBRAP_128_3456 (protein)
chain: SVEEVRKWTREVMEEIKKANLEEARKLVEELAERLKTLSLEEVEAAVEVIEEELPKLTPEKLEIIADVFREAAPELDPEKRALVAGAASDALLLAEEKEE
B5: GBRAP_128_3502 (protein)
chain: STAAAVARAEELMAEVGEADDEEAREIAKEIVALIDSLDDATAEAVADAIIAQLPKLDKESLEIVADTFREQLPSLDPEKANLVADIQVEALNLALEKEE
B6: GBRAP_43_5782 (protein)
chain: SKELVDGAIDFAILTLEEPEIPEEQKVKAAKAAFDLAADEGYVDLEKLKKVVEAAGKSLSAESLKELKAHLEEIAKKYPEHKEVFEEAAKLVEEYIKKKE
B7: GBRAP_125_2972 (protein)
chain: SEEQLLEDLRLVALALGLSEEDAEEAAALARASSVKGTLYAIMAALGYEEAAAAVEKLTEEEAKEVLRRVAAEIRANPELTPEEVRALILREAEAAIAAR
B8: GBRAP_125_3021 (protein)
chain: SKEELVEDLKAIAKALGFSEEDVEEIGELARKHGIKGTLIAIALALGEEELADLLEKLSEEEVEEVVRRLAAWLKANPNATPEEVKAKLLELAKEAVAKR
B9: GBRAP_160_4453 (protein)
chain: SEKLEELLKKVEEIREEAIELIEGQSHEERVVVVAVEFGALILELSSDESVSDELEDEVAEIVDELVATLKANPDLSEEEVKELIKEAAEKIKEALKKYL
B10: GBRAP_166_4903 (protein)
chain: SREEKIKELKKEIEELIEKYKEADEETQLELLIEIGEKLRELKKLGMSMEEILELVRKALEAAKEAGASVRVAAGIIAEEAEFDEEEIDKLDEIAKEVEA
B11: GBRAP_83_6872 (protein)
chain: AEKITVATTGDNIDSAVDAAIDLSKEEGYDVTLEILARPEDFERVLEAAKRLAEAKVEMELVVILEGATPEEAKELEARLKEIFKEAGVNNKIEVILVEP
B12: GBRAP_53_6411 (protein)
chain: AAATIAALKAQARALAKEAAAADDATRAALVAEIGAVLAALKAAGAPEEELTALAKEIARLLKAAGAPDSALVALAAELAALGLEEATAEVAEEAVEELE
B13: GBRAP_139_3762 (protein)
chain: DEREKIVEKARELTKKLAEGDEKAAEELAKLVKSVDDETLKAIADAIRKALQGLDPDTIEKMRDILEEEMKKVGASEEDILLIEGAIDAAEAEAIVAELA
B14: GBRAP_160_4207 (protein)
chain: SEKIEKIIKSLKEETERVKKLIPEESVEEVANALDVEIGSVLLEASELGEENEEIEDTIAKAADDGVKLLRENPDASPEELAAGLDKIAEEAIKKIKEIS
B15: GBRAP_84_7004 (protein)
chain: EREEKILEITKKILEKSSIELKQKLLAYLLLKNENKAATLALNDLLAEDPEAAVEALDLATEAYEEGKEEEVEKELLELAKKEGEEVYELVEELLELIEE
B16: GBRAP_160_4466 (protein)
chain: AESAKEVAADLRADVDATLAETADESPVQIALAAAVTVGSNLMEAISEGKVTDEQEDLMIAAMDEIRALAAEEPDASPEAVIARIRAIIEATVAAILAAA
B17: GBRAP_160_4738 (protein)
chain: EERIKELVERARETLLEALELSEGESREERAAIFRGAAGEVLMDFMEDESLSDEMEDAAARILDELVAALVAAFDASLEEKRAIVERHMARLEEELLKLA
B18: GBRAP_83_6915 (protein)
chain: MKEITVAAVGDHIDEAFDAAIDLKKEGVEKIIVEAIIKPEEVPRLLEAVKRALEAGVNLELEVFLEGATEEEAEEVEKKLKEIAKEAGKEVKVTVEVIEP
B19: GBRAP_53_6417 (protein)
chain: SEEELKKLKEEILKLAKEAGKAGPEEALKLTKEIGKKLKELKKAGASDEEITELAKEVAKLLKEAGAPDSVLVALANILAELGLDDATAEVVELIVEDLE

These binders were tested against GABARAP, O95166 (assay: median log2 fold change of GCK-ALFA target abundance (FLAG IP / Myc IP barcode read proportion) (log2 ratio); each designed protein is fused to an ALFA-tag nanobody in HEK293 cells to bring the named protein to FLAG-tagged glucokinase (GCK); Myc marks an untargeted standard; higher = target protein stabilised (more abundant)). Conditions: target protein: 3xFLAG-MCP-GCK-ALFA reporter; HEK293 landing pad (RPLP).
In short: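 The readout is target abundance, the per-binder median log2 ratio of FLAG to Myc barcode read proportions. It came from HEK293 landing-pad cells carrying a recombined ALFA-nanobody-fused binder library, induced with 2 μg mL^−1 doxycycline and transfected with a plasmid for a FLAG-tagged target and a Myc-tagged standard. After 48 h, lysates were immunoprecipitated with anti-FLAG and anti-Myc, and circular RNA barcodes were reverse transcribed, amplified and sequenced. Each barcode needed a proportion of at least 10^−7 in both replicates and each binder at least 3 barcodes per replicate, a pseudocount of 10^−6 was added, and the replicates were pooled.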

GABARAP, O95166, sequence (O95166 whole entry, the tested form may be a part): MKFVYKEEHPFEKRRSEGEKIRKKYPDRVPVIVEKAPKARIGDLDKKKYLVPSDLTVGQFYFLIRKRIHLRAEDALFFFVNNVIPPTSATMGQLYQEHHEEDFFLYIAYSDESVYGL

Binder | median log2 fold change
B1 | -0.435
B2 | 0.295
B3 | 0.0262
B4 | 0.13
B5 | 0.0852
B6 | 0.351
B7 | -0.0731
B8 | -0.32
B9 | -0.242
B10 | 0.346
B11 | 0.17
B12 | 0.275
B13 | 0.0447
B14 | -0.0845
B15 | -0.383
B16 | -0.146
B17 | 0.191
B18 | 0.19
B19 | 0.0476
